Data taken from ChEMBL document CHEMBL4888484, “Replenishing the malaria drug discovery pipeline: Screening and hit evaluation of the MMV Hit Generation Library 1 (HGL1) against asexual blood stage Plasmodium falciparum ,using a nano luciferase reporter read-out” (2022).
In all, about 150,000 compounds went through this assay and about 540 (0.36%) showed an effect of 50% or more. This is one part of the list.

The molecules below were run on Plasmodium falciparum (assay: Primary screen in NF54 nanoGlo assay, in single point, at 2uM, 72h; a lower Z score goes with more inhibition). Conditions: timepoint 72 hour.
Assay type: functional, Erythrocyte

Compound	% Inhibition	Z score
CC[C@H](C)[C@@H](C(=O)Nc1ccc(Cl)cn1)n1cnnn1	-6%	0.77
COc1ccnc(NCC2(c3ccccc3OC)CCOCC2)n1	-5%	0.49
O=C(NC[C@H]1CCOC1)c1cccc(S(=O)(=O)N2CCCCCCC2)c1	-19%	2.09
CN1CCC[C@H](C(=O)NCc2ccc(Cl)cc2Cl)C1	-16%	1.37
CN[C@H]1CCCc2c(OC)ccc(Cl)c21	-1%	0.15
CCCS(=O)(=O)N1CCC[C@H](C(=O)Nc2ccc(OC)c(N3CCCC3=O)c2)C1	-7%	1.28
COCC(C)NCC(C)c1cccs1 (centres undefined)	-5%	0.71
CN1CCN(c2ccccc2NC(=O)c2cccc3c(Br)cccc23)CC1	6%	-0.77
CC[C@@H](CC(F)(F)F)NC(=O)c1nc(C)c(C)[nH]c1=O	-2%	0.36
Cc1ccc(CN2CCN(Cc3ccc(C)o3)[C@@H]3CS(=O)(=O)C[C@@H]32)cc1	-9%	1.79
O=C1N[C@@](CCCc2ccccc2)(C2CCNCC2)C(=O)N1Cc1ccncc1	1%	-0.2
Cc1ncsc1CN[C@@H](C(N)=O)c1cccc(Br)c1	-11%	1.16
COc1ccccc1C1(CNC(=O)C[C@@H](CC(=O)O)c2cccs2)CCOCC1	-3%	0.43
COCC1(c2noc(-c3conc3C3CC3)n2)CCOCC1	-1%	0.16
CC(C)[C@H](NC(=O)OC(C)(C)C)C(=O)NC[C@H]1CC[C@H](C(=O)N[C@H](C)C(=O)O)CC1	0%	0.06
O=C(NCc1ccncc1)[C@]1(F)CCCN(Cc2c[nH]nc2-c2ccc(F)cc2)C1	-25%	2.23
CN(C(=O)CNC(=O)c1ccccc1)c1ccccc1	30%	-3.91
Cc1cc(=O)n2nc(-c3ccc(Cl)cc3)nc2n1CC(=O)N1CCCCCC1	-3%	0.41
CC(C)[C@@H](C(N)=O)n1cc(-c2nc3ccccc3n2C(C)C)nn1	-6%	0.94
CCOc1ccc2ncc(C#N)c(N3CCC(C(=O)N4CCCC4)CC3)c2c1	8%	-0.94
Cc1nnc(-c2ccccc2-c2cc(NCC(=O)O)nc3[nH]ccc23)s1	8%	-1.59
O=C(NCCN1C(=O)COC1=O)c1ccncc1	14%	-1.84

Compound	% Inhibition	Z score
Nc1ncccc1CN1CCC(O)(c2cccc(C(F)(F)F)c2)CC1	-11%	1.56
CN(C(=O)c1cc(COc2c(F)cccc2F)on1)C(C1CC1)C1CC1	-14%	1.48
Cn1cnc(NC(=O)C(C)(C)C(F)F)n1	-7%	1.44
O=C(CCC1CCCC1)N1CCN(Cc2ccccc2)c2ncccc21	-9%	1.07
CCc1nnc2c(NC(=O)Cc3ccsc3)cccn12	-8%	1.3
CC[C@H](C)C(=O)N1CC(OC(=O)Nc2cccc(F)c2)C1	-8%	1.12
Cc1cc(C)c(C#N)c(N2CCC[C@H](CNC(=O)c3sc(C)nc3C)C2)n1	-6%	0.89
O=C(N[C@H](Cc1ccccc1)C(=O)Nc1ccccc1)c1cc[nH]n1	9%	-0.94
Cc1nscc1C(=O)Nc1cnoc1C(C)C	3%	-0.62
C[C@H]1COCCN1CCN(Cc1ccccc1)CC1(O)CCOCC1	1%	-0.16
CCn1cc(CN(C)Cc2ccc(CN3CCCC3)s2)c(C)n1	-2%	0.33
O=C(NCC1CC2CCC1C2)C1CC12CCS(=O)(=O)CC2 (centres undefined)	-7%	1.42
CC1CCN(C(=O)c2c(-c3cccnc3)noc2[C@H](C)O)CC1	-5%	0.65
Cc1nc(C(C)C)sc1C(=O)N1C[C@H]2CCC[C@@]2(CO)C1	-5%	0.92
COCCOCC(=O)N(C1CC1)C1(C#N)CCC1	-14%	2.54
Cc1ccc(C)c(CNc2cc([C@H]3CCOC3)nc(N)n2)c1	-14%	1.54
CCc1nn2c(c1-c1ccc(OC)c(S(=O)(=O)NCc3cccc(C)c3)c1)NC(=O)CCC2=O	-1%	0.13
CNC(=O)[C@H]1CCN(S(=O)(=O)N2CCc3ccccc3C2)C1	-2%	0.29
CCN(CC)C(=O)[C@@H](NC(=O)c1cccs1)C1CCN(C(=O)NC(C)C)CC1	-6%	0.75
CCS(=O)(=O)NCCN(C)c1ccccc1N(C)C	1%	-0.12
CNC1CCN(S(=O)(=O)c2sc(C)nc2C)CC1	-7%	0.96
CCO[C@@H](C)c1nc(-c2ccncc2)nn1-c1cc(C)ccn1	-8%	1.56

Compound	% Inhibition	Z score
Cc1nc(C(=O)N(Cc2cccc(OCc3cccs3)c2)[C@H]2CCCCNC2=O)cs1	8%	-0.97
NC1CC2CC(C(=O)N3CCc4c(cccc4C(F)(F)F)C3)CC12 (centres undefined)	0%	0.04
O=C1[C@@H](N2CCOCC2)CCCN1Cc1cccc(Cl)c1	3%	-0.36
CCc1nc(CN(C)Cc2cc3n(n2)CCN(C(=O)N(C)C)C3)no1	-1%	0.1
CCc1ccccc1NC(=O)C1CCN(S(=O)(=O)c2ccc3c(c2)nc(C)n3C2CCCC2)CC1	-8%	1.11
CC(C)n1nccc1NC(=O)NC[C@@H](CO)Cc1cccs1	-1%	0.15
C[C@@H](Cn1cc(Br)cn1)Nc1ccc(CC#N)cc1	-14%	1.16
C#CC1CCN(C(=O)OC(C)(C)C)C(C)C1 (centres undefined)	5%	-0.56
COc1ncccc1C(=O)N(C1CCCC1)[C@H]1CCS(=O)(=O)C1	0%	0.03
O=C(Nc1cccc2c1CCO2)N1CCC(O)(C2CCC2)CC1	-16%	3.1
COCCC1(CNC(=O)NCc2c(C)n[nH]c2C)CC1	-11%	2.05
O=C(CCC=Cc1ccccc1)N1CCC(OC2CCCC2)CC1	-18%	1.89
COc1ccc2c(c1)N=C(c1ccc(F)cc1)N=C(c1cccs1)N2	-7%	0.76
O=C(CCC1CCCC1)NC1CC(O)C(CO)C1 (centres undefined)	-9%	1.38
CC(C)N(CC(=O)N(CCc1c[nH]c2ccccc12)Cc1ccccc1)S(=O)(=O)c1ccc(F)cc1	3%	-0.39
Cc1cccc(Cl)c1NC(=O)N(CCO)CC(F)F	-15%	2.44
CC(C)CN(Cc1csc(COc2ccc(Cl)cc2)n1)C(=O)c1cccs1	-8%	1.15
CN1C(=O)[C@](C)(C(=O)Nc2ccc(Cl)cc2F)Oc2cccnc21	0%	0.02
CS(=O)(=O)C[C@H](NCc1nc2c(s1)CCC2)c1ccccc1	34%	-4.64
CCCc1nccn1Cc1noc(C(C)(C)C)n1	-12%	1.55
CCCN(CCN1CCN(CC)CC1)C(=O)c1ccn2ccnc2c1	-35%	4.11
O=C(Cn1cc(S(=O)(=O)N2CCOCC2)ccc1=O)Nc1ccc(F)c(F)c1	-4%	0.8

Compound	% Inhibition	Z score
CCC1CC(NC(=O)NCC(F)(F)c2ccc(F)cc2)CCO1 (centres undefined)	-9%	1.63
CN(CCCN1CCCC1)C(=O)NCc1c(F)cc(F)c(F)c1F	4%	-0.72
CN1CCCC[C@@H]1CCOc1ccc(N)cc1	-14%	1.78
COc1ccccc1N(CCC(N)=O)C(=O)c1cccnc1OC	0%	0.05
O=C(CC1CCCCNC1=O)Nc1ccccc1C(O)C(F)(F)F (centres undefined)	-9%	1.34
O=C(c1cccs1)n1c(=S)sc2ccccc21	-7%	1.09
Nc1nnc(CCNc2nc3c(c(=O)[nH]2)Cc2ccccc2OC3)s1	-4%	0.37
CCC[C@H](N)C(=O)N1CCCc2sccc2C1	-2%	0.41
CCCN(CCN1CCN(CC)CC1)C(=O)c1cccnc1C	-8%	0.79
O=C(Nc1ccon1)c1cc2c(s1)CCCCCC2	-21%	2.42
CN(C)c1cc(C(=O)N(C)C2CCCCC2)ccn1	-6%	0.7
O=C(c1ccoc1)N1CCOc2ccc(N3CCOCC3)cc2C1	-7%	1.28
Cc1cccc(CN[C@@H](C)C2(N3CCOCC3)CCCC2)c1	-12%	1.36
CN(CCC1CCOCC1)Cc1c[nH]nc1-c1ccc(-c2ccccc2)cc1	-9%	1.29
C[C@@H](Cc1ccccc1F)C(=O)N(C)S(C)(=O)=O	-4%	0.39
CC1(CNC2CCC3(CCCC3)CC2)COC1	14%	-1.81
C[C@@H](Cn1cccn1)OC(=O)c1cnn(C)c1	-4%	0.56
CCC(N[C@@H](C)CO)c1cccc(Cl)c1F (some centres undefined)	-11%	1.19
O=C(c1ccc(=O)[nH]c1)N1CCN(C(=O)c2cc(F)c(Cl)cc2F)CC1	-2%	0.32
CC1CCCC(CNC(=O)N[C@@H]2CCCN(S(=O)(=O)N(C)C)C2)O1 (some centres undefined)	3%	-0.54
CC(=O)N1CCN[C@@H](Cc2ccccc2)C1	-2%	0.25
